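96-well plates; 48 h exposure; 5 concentrations. Endpoints by linear interpolation between flanking doses. Not reached: highest tested concentration assigned. GI50 is the concentration that inhibits growth by half. The concentration for full growth arrest is given as TGI.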 Square brackets hold non-standard residues; d marks the D form. Peptide text beside a SMILES is read from it. * marks the point of attachment. Nle = CCCC[C@H](N)C(=O)O; Cbz = O=C(OCc1ccccc1)*
Test system: NCI-H322M lung
Experiment: NCI tumour cell line growth inhibition, 48 h

SMILES | TGI | GI50
N#CC1=C(Cl)NC(Cl)=C(C#N)C1c1ccc(Cl)cc1 | 98.2 µM | –
Cc1nc2ccccn2c1NC(=O)NNC(=S)Nc1ccc(Cl)cc1 | > 100 µM | > 100 µM
CC1=NN(C2=NS(=O)(=O)c3ccccc3N2C)C(=O)C1 | > 100 µM | –
COc1ccc2c3c([nH]c2c1CC=C(C)C)C(=O)C=C(C)C3=O | > 25 µM | –
Clc1ccc(-c2ccc(CNCC3CCNCC3)o2)c(-c2ccccc2)c1 | 2.93 µM | 1.55 µM
O=c1c(Br)c(-c2ccccc2)[nH]c2ccccc12 | > 100 µM | –
OC1(c2ccccc2)CSc2ncnn21 (configuration not stated) | > 100 µM | –
Cn1cnc2[nH]c(=O)[nH]c(=S)c21 | > 100 µM | –
CC(=O)Oc1ccc(/C=C/C(=O)NCC(NC(=O)/C=C/c2ccc(OC(C)=O)c(OC(C)=O)c2)C(=O)O)cc1OC(C)=O (configuration not stated) | > 100 µM | –
COc1cc(C(=O)/C=C/c2c(C)n([O-])c3ccc(C(F)(F)F)cc3[n+]2=O)cc(OC)c1OC | > 100 µM | 47.6 µM
Cc1ccc(-c2c3c(nn2-c2ccc(S(=O)(=O)NC(=O)Nc4ccccc4)cc2)-c2ccccc2C3)cc1 | 30.4 µM | 13.7 µM
CCCC[C@@H](C=O)NC(=O)[C@H](CC(C)C)NC(=O)[C@H](CC(C)C)NC(=O)OCc1ccccc1 (Cbz-Leu-Leu-[Nle]-aldehyde) | 16.5 µM | 3.02 µM
C/C(=C\CO)CC/C=C(\C)CNc1ccccc1 | 44.3 µM | –
CC12CCC3(C1)[C@H](CC2=O)C[C@@H](OC(=O)c1ccccc1)C1C(C)(CO)CCC[C@@]13C (some centres not stated) | > 100 µM | –
COC(=O)C1SC(N(C)c2ccccc2)=NC12c1ccccc1Nc1ccccc12 (configuration not stated) | 74.3 µM | –
Clc1nc(Cl)c2ncn(CC#CCn3cnc4c(Cl)nc(Cl)nc43)c2n1 | 24.5 µM | 11.3 µM

— PubChem BioAssay (NCI)
